Measured values reported in PubChem BioAssay AID1745853 (National Center for Advancing Translational Sciences (NCATS), 2022).
The other results are listed elsewhere or left out. Shown are side measurements of this screen, not its main read-out; they come without a call.

What was measured:
Experiment in all cases: Primary Screen for Target Class Profiling of Small Molecule Inhibitors of Methyltransferases
[1] = target: Glycine N-methyltransferase (Homo sapiens) (UniProt Q14749); settings: purified enzyme, MTase-Glo SAH luminescence; measured here: GNMT inhibition; at 40 µM; stronger effect = lower value
In short: (§1)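 Each enzyme was assayed with SAM and its substrate. SAH formation detected by MTase-Glo luminescence; single-point 40 uM screen[…].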

[2] = target: Guanidinoacetate N-methyltransferase (Homo sapiens) (UniProt Q14353); settings: purified enzyme, MTase-Glo SAH luminescence; measured here: GAMT inhibition; at 40 µM; stronger effect = lower value
In short: as §1

[3] = target: Histamine N-methyltransferase (Homo sapiens) (UniProt P50135); settings: purified enzyme, MTase-Glo SAH luminescence; measured here: HNMT inhibition; at 40 µM; stronger effect = lower value
In short: as §1

[4] = target: Nicotinamide N-methyltransferase (Homo sapiens) (UniProt P40261); settings: purified enzyme, MTase-Glo SAH luminescence; measured here: NNMT inhibition; at 40 µM; stronger effect = lower value
In short: as §1

[5] = target: Phenylethanolamine N-methyltransferase (Homo sapiens) (UniProt P11086); settings: purified enzyme, MTase-Glo SAH luminescence; measured here: PNMT inhibition; at 40 µM; stronger effect = lower value
In short: as §1
On the % scale 0 is the no-effect control and ±100 the full control effect.

Compound	activity change, negative = inhibition [1]	activity change, negative = inhibition [2]	activity change, negative = inhibition [3]	activity change, negative = inhibition [4]	activity change, negative = inhibition [5]
Cc1ccc(CCNC(=O)c2ncn3c2C(=O)N(C2CC2)C(C)(C(=O)NCc2ccc(F)cc2)C3)cc1 (stereo not drawn)	-9.37%	-1.75%	-8.22%	-6.56%	-6.6%
C[S+](=O)([O-])NCCNC(=O)c1cccc(-c2ccsc2)c1	-3.71%	-0.886%	-0.871%	-2.43%	2.23%
COC(=O)c1ncn2c1C(=O)N(CCc1ccc(OC)c(OC)c1)C(C)(C(=O)NC1CCCCC1)C2 (stereo not drawn)	4.52%	1.6%	7.75%	10.1%	6.34%
COc1ccc2cc1Oc1ccc(cc1)CC1c3cc(c(OC)cc3CCN1C)Oc1c(OC)c(OC)c(OC)c3c1C(C2)N(C)CC3 (stereo not drawn)		13.1%		-9.92%	-7.72%
Cc1cc2c(cc3n2CC(C)(C(=O)NC2CCCCCCC2)N(CCCN2CCCCC2)C3=O)o1 (stereo not drawn)	4.57%	0%	7.64%	14.2%	5.14%
C/C=C/C=C/C=C/C(=O)O[C@@H]1C=C2COC(=O)[C@]2(O)[C@@]2(C)CCCC(C)(C)[C@H]12	-1.06%	-23.2%	-4.59%	-38.9%	0.45%
COc1cc2c(cc1O)[C@H](c1ccc(O[C@@H]3O[C@H](CO)[C@@H](O)[C@H](O)[C@H]3O)c(OC)c1)[C@@H](CO)[C@](O)(CO)C2	-2.85%	8.53%	0.143%	-5.87%	4.78%
CCCCOc1ccc(S(=O)(=O)n2c(C)nc3ccccc32)cc1	5.74%	3.43%	5.52%	-1.13%	9.13%
CC(CNC(=O)c1nnn2c1c(=O)[nH]c1cc(F)ccc12)c1ccccc1 (stereo not drawn)	-11.4%	0%	-44.6%	-9.62%	-0.887%
Cc1ccccc1NC(=O)CSc1nnc2n(CCC(C)C)c(=O)c3ccccc3n12	-3.67%	0%	4.43%	-6.29%	2.77%
NS(=O)(=O)c1ccc(CCNc2nc3c(S(=O)(=O)c4ccccc4)nnn3c3ccccc23)cc1	-14.6%	2.09%	2.06%	-9.09%	-1.67%
COc1ccc(C(=O)C2CCCN(Cc3csc(C(C)=O)c3)C2)c(OC)c1 (stereo not drawn)	-13.8%	-2.42%	-3.69%	-6.73%	-8.88%
Cc1nnc2ccc(N3CCN(C(=O)c4ccncc4)CC3)nn12	-6.14%	-3.58%	0.339%	-13.1%	-11.7%
Cc1ccc(NC(=O)CSc2nnc3n(Cc4ccc(F)cc4)c(=O)c4ccccc4n23)cc1	2.98%	0%	10.3%	3.74%	6.26%
CC1(C(=O)NC2CCCCCC2)Cn2c(ccc2-c2ccccc2)C(=O)N1CCCN1CCOCC1 (stereo not drawn)	0.551%	-2.02%	-1.14%	-5.13%	-3.15%
CCOC(=O)c1cc2n(n1)CC(C)(C(=O)NC1CCC(C)CC1)N(c1cccc(CC)c1)C2=O (stereo not drawn)	-1.55%	3.88%	-0.024%	-6.17%	0.704%
